From article PMC4336329 (PLoS ONE, 2015) come the findings set out here.

The whole screen tested about 310,000 compounds, of which about 2,200 (0.71%) showed an effect of 50% or more. The effect is printed as a negative number. The list shows a part of the results.

For the assay, the target named is human ether-à-go-go-related gene (hERG) potassium channel (human, UniProt Q12809). As to the kind of experiment: primary screen, population patch clamp on CHO cells stably expressing hERG.
human ether-à-go-go-related gene (hERG) potassium channel, sequence (Q12809 whole entry, looked up): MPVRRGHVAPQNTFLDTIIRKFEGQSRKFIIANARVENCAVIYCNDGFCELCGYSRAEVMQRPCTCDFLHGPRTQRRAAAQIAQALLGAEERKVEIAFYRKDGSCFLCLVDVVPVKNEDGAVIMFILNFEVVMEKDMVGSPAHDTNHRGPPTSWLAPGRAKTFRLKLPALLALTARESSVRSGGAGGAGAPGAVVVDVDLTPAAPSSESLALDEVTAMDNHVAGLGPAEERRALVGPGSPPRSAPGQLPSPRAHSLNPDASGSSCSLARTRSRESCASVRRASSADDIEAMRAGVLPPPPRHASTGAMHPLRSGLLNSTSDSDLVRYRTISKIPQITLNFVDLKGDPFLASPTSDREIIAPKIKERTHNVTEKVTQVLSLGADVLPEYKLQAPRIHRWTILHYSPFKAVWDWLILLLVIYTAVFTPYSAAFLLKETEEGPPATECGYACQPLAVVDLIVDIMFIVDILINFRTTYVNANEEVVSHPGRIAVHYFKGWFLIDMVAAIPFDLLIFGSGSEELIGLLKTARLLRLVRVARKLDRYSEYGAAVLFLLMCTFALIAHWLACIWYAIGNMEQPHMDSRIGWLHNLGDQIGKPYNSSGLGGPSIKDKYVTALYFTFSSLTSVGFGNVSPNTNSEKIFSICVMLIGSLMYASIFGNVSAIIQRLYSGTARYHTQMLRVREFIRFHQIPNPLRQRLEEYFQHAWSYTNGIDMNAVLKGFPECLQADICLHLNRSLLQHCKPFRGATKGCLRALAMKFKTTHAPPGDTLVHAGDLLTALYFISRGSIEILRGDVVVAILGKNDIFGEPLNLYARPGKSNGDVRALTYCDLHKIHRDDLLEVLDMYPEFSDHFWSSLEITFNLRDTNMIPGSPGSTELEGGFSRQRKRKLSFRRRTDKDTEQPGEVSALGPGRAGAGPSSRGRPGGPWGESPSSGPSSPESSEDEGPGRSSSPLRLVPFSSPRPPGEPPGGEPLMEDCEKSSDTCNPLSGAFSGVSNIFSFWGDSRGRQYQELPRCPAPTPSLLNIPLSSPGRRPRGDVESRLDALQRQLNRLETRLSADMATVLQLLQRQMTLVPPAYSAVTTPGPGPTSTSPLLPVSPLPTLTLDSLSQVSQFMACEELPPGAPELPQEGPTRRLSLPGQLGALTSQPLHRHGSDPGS
For `CCOC(=O)N1CCN(C(=O)CN2C(=O)COc3ccc(S(=O)(=O)N4CCOCC4)cc32)CC1`, the “hERG current change (%, negative = inhibition) at 1uM” value was determined as 13.3%.
In the case of `Cc1cc(NC(=O)CSc2nccn2-c2cccc(C)c2C)no1` it was 9.25%; in that of `CC(Nc1nc(-c2cccnc2)nc2ccccc12)c1ccc(F)cc1` (stereo not shown), 10.4%.
In the case of `COC(=O)C1=C(COc2ccc(C=O)cc2OC)NC(=O)NC1c1cc(C)ccc1C` (stereo not shown) it was 14.9%; in that of `NC(=O)c1ccccc1NC(=O)CSC1=NCCS1`, 14.4%.
Take `COC(Cc1n[nH]c(=S)n1-c1ccc(Cl)cc1)OC`: the “hERG current change (%, negative = inhibition) at 1uM” value is on record as 4.92%.
On to `COC(=O)Cc1nnc(NC(=O)C(C)C)s1`, for which the “hERG current change (%, negative = inhibition) at 1uM” value turned out to be 7.51%.
The figure for `CCOc1ccc(NC(=O)C(c2ccccn2)N(C(=O)CCl)c2ccc(OCC)cc2)cc1` (stereo not shown) is 10.2%; for `Cc1cc2c(cc1S(=O)(=O)N(C)Cc1ccccc1)n(C)c(=O)c(=O)n2C` it is -14.7%.
In the case of `O=C(CN1CCCCC1)N/N=C/c1ccc(Cl)cc1Cl` it was -1.76%.
In the case of `CC(OCCN(C)C)C(=O)C12CC3CC(CC(C3)C1)C2.Cl` (stereo not shown) it was 12.4%.
For the molecule `CCOC(=O)COc1cc(OCC(=O)OCC)c2c(=O)cc(-c3ccccc3)oc2c1`, the “hERG current change (%, negative = inhibition) at 1uM” value is recorded as -29.2%.
`Cc1c(N2C(=O)/C(=C/c3ccccc3)SC2=S)c(=O)n(-c2ccccc2)n1C`: the “hERG current change (%, negative = inhibition) at 1uM” value was 2.65%.
In the case of `Cc1ccnc(NC(=S)NC(=O)c2cccs2)c1` it was 18.8%.
`O=C(CC(C(=O)N1CCc2ccccc21)n1ccnc1)NCc1ccccc1` (stereo not shown): the “hERG current change (%, negative = inhibition) at 1uM” value is given as -15.4%.
`O=C(CSc1nnc(-c2ccco2)o1)c1ccccc1Cl`: the “hERG current change (%, negative = inhibition) at 1uM” value is given as 8.22%.
In the case of `CC(C)=CCCC1(C)C=Cc2c(ccc3c2[nH]c2cc(O)c(C)cc23)O1` (stereo not shown) it was 7.04%; in that of `Cc1cc(C)nc(N(C#N)CC(=O)Nc2ccccc2)n1`, 14.9%; in that of `COc1ccccc1C(=O)NCC(C)(C)CN=C1NS(=O)(=O)c2ccccc21`, 7.92%.
The figure for `Cc1nc2sccn2c(=O)c1S(=O)(=O)N1CCN(c2ccc(F)cc2)CC1` is -23%; for `Cc1cc(-c2nnc(SCC(=O)Nc3ccc(Br)cc3F)n2N)n[nH]1` it is -9.27%; for `O=C(CSc1nnc(-c2cccs2)o1)Nc1cccc(S(=O)(=O)N2CCCCC2)c1` it is 8.77%.
In the case of `O=C(CN(c1ccc(F)cc1)S(=O)(=O)c1ccccc1)N1CCOCC1` it was 10%; in that of `Cn1cc(/C=C/c2cc[n+](C)cc2)c2cc(F)ccc21.[I-]`, 8.46%.
Consider `CCOC(=O)c1c(C)[nH]c(C(=O)OCc2ccc(C)cc2)c1C`, for which the “hERG current change (%, negative = inhibition) at 1uM” value was determined as 11.8%.
In the case of `C=CCNC(=O)Nc1ccc(F)cc1F` it was 4.76%.
The figure for `COc1cccc(/C=N/NC(=O)CCCC(=O)NC2CCCCC2)c1` is -1.03%; for `CC(=O)c1ccc(Oc2ncnc3sccc23)c(CN2CCOCC2)c1` it is 1.61%; for `CCC1(c2cccc(O)c2)CCCCN(C)C1.Cl` (stereo not shown) it is 5.49%.
The figure for `Cc1ccccc1S(=O)(=O)c1c(C)cc(C)n(C(C)C)c1=O` is 0.399%; for `COc1ccccc1OCc1nc(-c2ccc([N+](=O)[O-])cc2)no1` it is 10.9%.
For the molecule `O=C1CC(Sc2cccs2)C(=O)N1c1ccccc1` (stereo not shown), the “hERG current change (%, negative = inhibition) at 1uM” value is reported as 10.8%.
Regarding `O=C(Nc1sc2c(c1C(=O)O)CCC2)c1ccc(F)cc1`, the “hERG current change (%, negative = inhibition) at 1uM” value came out at 13.6%.
The figure for `N#CC(c1ccccc1)N(CCCCl)C(=O)c1ccc(Br)cc1` (stereo not shown) is 10.8%.
The figure for `CNC(=O)N(c1ccccc1)c1ccccc1` is 7.85%.
The figure for `Cc1ccc(N(CC(=O)NC2CCCCC2)C(=O)CCCC(=O)Nc2ccccn2)cc1` is 5.91%; for `COC(=O)[C@@]1(Cc2ccc(F)cc2)[C@H]2c3cc(C(=O)N(C)C)n(CCc4ccccn4)c3C[C@H]2CN1C(=O)c1ccccc1` it is -35.6%; for `CCOc1ccc(C2NC(=O)c3ccccc3O2)cc1OC` (stereo not shown) it is 12.3%.
Consider `CCN(CC)CCCNC(=O)c1c(O)c2cc(F)cc3c2n(c1=O)C(C)CC3.Cl` (stereo not shown), for which the “hERG current change (%, negative = inhibition) at 1uM” value was 2.41%.
The figure for `CCCCn1c(N)c(N(CCOC)C(=O)C2CCN(C(=O)c3ccccc3C)CC2)c(=O)[nH]c1=O` is -4.48%; for `COc1ccc(CN2CCN(Cc3cc4ccccc4o3)CC2CCO)c(F)c1` (stereo not shown) it is -24.7%.
In the case of `CCCCCc1c(C)[nH]c2nc3ccccc3n2c1=O` it was 6.36%; in that of `Cc1ccc2occ(C3N[C@H](C(=O)O)CS3)c(=O)c2c1` (stereo partly shown), 2.76%; in that of `COc1cc2c(cc1NC(=O)CSc1ccccn1)oc1ccccc12`, 5.9%.
The figure for `CCN(C(=O)c1c(-c2ccccc2)noc1C)c1ccccc1` is 8.88%; for `Fc1ccccc1-n1c(-c2ccc3ccccc3n2)n[nH]c1=S` it is 10.6%.
Regarding `O=S(=O)(Nc1ccc(Cl)cn1)c1cccc(S(=O)(=O)c2ccccc2)c1`, the “hERG current change (%, negative = inhibition) at 1uM” value was determined as 3.57%.
`COc1ccccc1-n1cccc1C=O`: the “hERG current change (%, negative = inhibition) at 1uM” value is 7.24%.
With `Cc1cc2c(c(/C=C/C(=O)c3ccccc3)c1)OC1(C=C2)Oc2ccccc2C(=O)N1C` (stereo not shown), the “hERG current change (%, negative = inhibition) at 1uM” value was 13.3%.
The figure for `O=C(c1cccc(F)c1)N1CCCC(C(=O)N2CCCCC2)C1` (stereo not shown) is 13.5%.
In the case of `CCOC(=O)C1CCN(C(=O)c2cc3c(s2)-c2ccccc2OC3)CC1` it was -1.08%; in that of `Cc1ccc(NC(=O)CN2C(=O)c3ccccc3S2(=O)=O)cc1C`, 10.4%; in that of `O=C(Nc1ccc2c(c1)Cc1ccccc1-2)c1cc2ccccc2o1`, 10.6%.
The figure for `Cn1c(=S)n(/N=C/c2cccs2)c2ccccc21` is 6.75%; for `Cc1c(C(=O)C(C)C)n(C)c2ccccc12` it is 12.7%; for `N#Cc1cnn(Cc2ccc(Cl)cc2)c1N` it is 0.44%.
As to `O=C(O)C(F)(F)F.Oc1cc(-c2cccnc2)cc2cccnc12`, the “hERG current change (%, negative = inhibition) at 1uM” value is 8.56%.
The figure for `COc1ccccc1OCC(=O)NNC(=O)c1ccc2c(=O)n3c(nc2c1)CCC3` is 5.68%.
